Measurements from the supplement of paper PMC7826260.
The list shows a part of the results. Viral Rep nickase domains cut single-stranded DNA in vitro (1 h at 37 °C, 3 µM enzyme); the outer parts of the 90-letter strands are left off. Numbers give uncut DNA relative to the enzyme-free pool, as log2; the lower, the more was cut; hits are not called. Counts are relative to all reads; where an enzyme cuts many sequences, the uncut ones exceed 0.

How the values were obtained:
Assay in all cases: uncleaved DNA left, log2 of reads against the no-enzyme library (log2 ratio); higher = less cleavage (more negative = more Rep cleavage of the k-mer); sequences stand for … in CTCGTCCG…ACCGGAGA
[1] = system: T1, Rep nickase domain of Muscovy duck circovirus
T1 sequence (Rep 1-111, printed without the tag): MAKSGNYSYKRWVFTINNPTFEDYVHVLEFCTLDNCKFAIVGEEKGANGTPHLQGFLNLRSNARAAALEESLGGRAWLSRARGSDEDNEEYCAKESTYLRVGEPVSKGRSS
Description: (§1)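 A pool of 90-nt single-stranded DNAs with seven random bases just before the constant AC of the nick site (name = the seven bases) was cut by 3 µM recombinant His6-SUMO-tagged Rep nickase domain (300 nM DNA, 50 mM HEPES pH 8.0, 50 mM NaCl, 1 mM MnCl2, 1 h, 37 °C, three replicates). Uncut DNA was amplified and sequenced.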

[2] = system: T2, Rep nickase domain of banana bunchy top virus
T2 sequence (Rep 1-94, printed without the tag): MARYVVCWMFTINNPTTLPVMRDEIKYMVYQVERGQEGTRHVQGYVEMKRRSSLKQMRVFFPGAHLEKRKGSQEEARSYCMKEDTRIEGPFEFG
Description: as §1

[3] = system: T3, Rep nickase domain of cabbage leaf curl virus
T3 sequence (Rep 1-116, printed without the tag): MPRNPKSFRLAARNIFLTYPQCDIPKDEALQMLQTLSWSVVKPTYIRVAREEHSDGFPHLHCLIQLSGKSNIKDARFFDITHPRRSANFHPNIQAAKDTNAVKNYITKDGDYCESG
Description: as §1

[4] = system: T4, Rep nickase domain of chickpea chlorotic dwarf virus
T4 sequence (Rep 1-124, printed without the tag): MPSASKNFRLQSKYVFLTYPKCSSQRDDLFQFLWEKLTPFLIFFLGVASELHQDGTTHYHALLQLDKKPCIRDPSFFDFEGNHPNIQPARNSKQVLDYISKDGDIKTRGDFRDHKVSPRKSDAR
Description: as §1

[5] = system: T5, Rep nickase domain of faba bean necrotic yellows virus
T5 sequence (Rep 1-98, printed without the tag): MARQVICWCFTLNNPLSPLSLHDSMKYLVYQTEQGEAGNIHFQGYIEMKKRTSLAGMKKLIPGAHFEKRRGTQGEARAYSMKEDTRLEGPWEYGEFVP
Description: as §1

[6] = system: T6, Rep nickase domain of maize striate mosaic virus
T6 sequence (Rep 1-117, printed without the tag): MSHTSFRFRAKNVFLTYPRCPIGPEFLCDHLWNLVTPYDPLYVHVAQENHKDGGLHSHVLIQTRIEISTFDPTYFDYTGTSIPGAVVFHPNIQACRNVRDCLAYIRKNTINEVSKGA
Description: as §1

[7] = system: T7, Rep nickase domain of porcine circovirus 2
T7 sequence (Rep 2-116, printed without the tag): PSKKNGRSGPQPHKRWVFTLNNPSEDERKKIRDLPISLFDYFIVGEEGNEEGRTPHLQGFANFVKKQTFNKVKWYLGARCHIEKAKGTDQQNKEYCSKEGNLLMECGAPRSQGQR
Description: as §1

[8] = system: T8, Rep nickase domain of tomato golden mosaic virus
T8 sequence (Rep 1-124, printed without the tag): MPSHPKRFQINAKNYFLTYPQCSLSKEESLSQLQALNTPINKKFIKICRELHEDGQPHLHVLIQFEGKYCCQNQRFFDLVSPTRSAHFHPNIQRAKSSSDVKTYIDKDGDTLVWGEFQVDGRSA
Description: as §1

[9] = system: T9, Rep nickase domain of tomato yellow leaf curl virus
T9 sequence (Rep 1-136, printed without the tag): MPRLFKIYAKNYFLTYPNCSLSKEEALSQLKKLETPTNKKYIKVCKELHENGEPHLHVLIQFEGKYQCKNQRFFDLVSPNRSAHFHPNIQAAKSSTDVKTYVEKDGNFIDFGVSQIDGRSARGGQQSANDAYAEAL
Description: as §1

[10] = system: T10, Rep nickase domain of wheat dwarf virus
T10 sequence (Rep 1-137, printed without the tag): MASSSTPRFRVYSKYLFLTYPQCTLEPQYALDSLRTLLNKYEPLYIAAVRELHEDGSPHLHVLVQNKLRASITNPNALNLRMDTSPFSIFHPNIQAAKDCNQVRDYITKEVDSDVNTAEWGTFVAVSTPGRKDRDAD
Description: as §1

Sequence	uncleaved DNA left (log2) [1]	uncleaved DNA left (log2) [2]	uncleaved DNA left (log2) [3]	uncleaved DNA left (log2) [4]	uncleaved DNA left (log2) [5]	uncleaved DNA left (log2) [6]	uncleaved DNA left (log2) [7]	uncleaved DNA left (log2) [8]	uncleaved DNA left (log2) [9]	uncleaved DNA left (log2) [10]
CTTGCCT	0.0194	-0.0916	-0.465	-1.51	0.0887	-1.11	-0.272	-0.000844	0.0949	-0.0901
CAGGACA	-0.0358	0.0705	0.508	1.04	0.149	1.35	0.237	0.234	0.00279	0.152
TGGTCCC	0.00715	0.117	0.323	0.684	-0.0397	1.35	-0.0357	-0.116	0.0471	-0.0197
GGGTTCT	-0.177	-0.0114	0.639	1.59	-0.201	2.04	-0.734	-0.156	-0.0167	-0.0525
GATTGGA	-0.103	0.0129	-0.013	0.146	-0.0414	-0.208	-0.276	0.147	0.108	-0.017
CTACTAT	0.214	0.0106	-0.0423	-2.03	0.049	-0.343	-0.142	0.031	0.132	0.0529
CGGAACG	-0.129	-0.0692	-0.675	-0.466	-0.0604	-0.77	0.0779	-0.228	-0.159	-0.185
GCGTCGT	0.0498	0.0451	-0.162	-0.0765	0.0514	-0.228	-0.144	0.00479	0.0825	-0.0563
GCAACCA	-0.101	0.131	0.0427	-1.11	-0.045	-0.045	-0.64	0.051	0.0393	0.148
TGCGCAC	0.0406	-0.031	-0.145	-0.0636	-0.0709	-0.383	-0.0189	-0.0084	0.0468	0.082
AGAGCCT	0.238	0.189	0.886	1.52	0.178	2.13	0.165	0.116	0.0238	0.234
TCAGTCA	-0.00487	0.0327	0.128	-1.02	-0.0464	-0.461	0.119	-0.014	0.0244	0.0569
TGATCAG	0.0947	0.0197	-0.503	-0.43	0.0648	-1	0.234	0.0226	0.149	-0.0228
GGCTGCG	0.0717	-0.0166	-0.649	0.308	-0.0359	-0.379	0.0632	-0.0502	-0.284	-0.164
CACATTC	0.0397	0.00253	-0.409	-0.407	0.0491	-1.03	0.139	-0.094	-0.0738	-0.0843
GTTAATT	0.0598	0.131	0.483	0.696	0.0806	1.74	0.000486	0.0835	0.175	0.211
TCGCACT	-0.271	-0.244	-0.0782	-1.66	-0.209	-0.263	-0.389	-0.296	-0.152	-0.19
CCGCATG	0.13	-0.115	-0.432	-0.467	-0.138	-0.685	0.0863	0.13	-0.114	-0.161
AACGTAA	-0.0904	-0.0772	-0.214	-0.659	-0.168	-0.451	-0.00326	-0.104	-0.138	-0.165
CGATTAG	0.166	0.2	-0.171	-0.093	0.217	-0.739	0.33	0.196	0.19	0.173
TGATAAG	0.0645	0.125	-0.333	0.0761	0.1	-0.242	0.0788	0.13	0.127	0.0138
TGCTGCT	-0.622	-0.0536	-0.298	-0.867	0.0795	-0.781	-1.84	-0.0414	-0.0589	-0.144
TACGATA	-0.072	-0.0817	-0.404	-2.52	-0.0154	-0.504	-0.312	-0.104	-0.132	-0.0905
GATGATC	-0.0275	-0.0834	0.135	0.459	-0.0861	0.702	0.0887	-0.101	-0.0928	-0.0798
AAATTCG	-0.0594	0.0161	-0.771	0.448	-0.0451	-0.711	0.0432	0.0421	0.0798	-0.0667
TACACAA	0.0653	0.0331	-0.109	-0.999	-0.0534	-0.679	0.0384	-0.00713	0.00992	0.0607
AGATATC	-0.0115	0.0466	0.435	0.743	0.107	0.233	0.134	0.0212	0.0708	0.0617
GTCGCGA	-0.00762	-0.0666	-0.46	-0.343	-0.0572	-0.606	0.0947	-0.00119	-0.0387	-0.165
CCAGCGT	-0.0133	-0.015	-0.824	-0.532	0.0798	-0.882	0.00504	0.0515	-0.00843	-0.128
TACCTAA	0.0161	-0.0573	-0.14	-1.82	-0.0867	-0.545	-0.956	-0.103	-0.0967	-0.0838
